Experimental findings from EP4345091A1, “BENZOIC ACID DERIVATIVES, METHODS AND USES THEREOF” (priority 2022, dated 2024) are described below.

The data set relates to Mycobacterium smegmatis homogenate. Kind of data set: Stability in Mycobacterium smegmatis homogenate (enzymatic hydrolysis). As to conditions: 37°C, 48h, substrate 5×10^-4M with 2% ACN, values are kobs × 100.
For the molecule `CCCCOC(=O)c1cc([N+](=O)[O-])cc([N+](=O)[O-])c1` [Compound 3a], the “kobs × 100” value is 11.0 ± 0.8 h^-1. With `CCCCCCOC(=O)c1ccc([N+](=O)[O-])cc1` [Compound 2b], the “kobs × 100” value was found to be 6.05 ± 0.31 h^-1. Take `CCCCNC(=O)c1ccc([N+](=O)[O-])cc1` [Compound 6a, N-butyl-4-nitrobenzamide]: the “kobs × 100” value is 0.91 ± 0.07 h^-1.

As for `CCCCOC(=O)c1ccc([N+](=O)[O-])cc1` [Compound 2a], the “kobs × 100” value was found to be 20.4 ± 3.3 h^-1. `CCCCCCOC(=O)c1ccccc1` [Compound 1b, Hexyl benzoate]: the “kobs × 100” value was determined as 332 ± 19 h^-1. With `CCCCCCCCCCCCOC(=O)c1ccccc1` [Compound 1e, Dodecyl benzoate] the figure was 0.76 ± 0.02 h^-1. With `CCCCOC(=O)c1cc([N+](=O)[O-])cc(C(F)(F)F)c1` [Compound 4a, Butyl 3-nitro-5-(trifluoromethyl)benzoate] the figure was 13.0 ± 1.1 h^-1; with `CCCCCCCCOC(=O)c1ccccc1` [Compound 1c, Octyl benzoate], 35.5 ± 0.3 h^-1; with `CCCCNC(=O)c1cc([N+](=O)[O-])cc(C(F)(F)F)c1` [Compound 8a, N-butyl-3-nitro-5-(trifluoromethyl)-benzamide], 1.09 ± 0.07 h^-1.

Turning to `CCCCNC(=O)c1cc([N+](=O)[O-])cc([N+](=O)[O-])c1` [Compound 7a, N-butyl-3.5-dinitrobenzamide], the “kobs × 100” value amounted to 3.03 ± 0.20 h^-1. The same measure for `CCCCCCOC(=O)c1cc([N+](=O)[O-])cc([N+](=O)[O-])c1` [Compound 3b]: 0.86 ± 0.06 h^-1. The same measure for `CCCCCCCCOC(=O)c1ccc([N+](=O)[O-])cc1` [Compound 2c, Octyl 4-nitrobenzoate]: 1.80 ± 0.38 h^-1; for `CCCCOC(=O)c1ccccc1` [Compound 1a, Butyl benzoate]: 356 ± 17 h^-1; for `CCCCCCOC(=O)c1cc([N+](=O)[O-])cc(C(F)(F)F)c1` [Compound 4b, Hexyl 3-nitro-5-(trifluoromethyl)benzoate]: 0.67 ± 0.06 h^-1. Turning to `CCCCCCCCCCCCOC(=O)c1ccc([N+](=O)[O-])cc1` [Compound 2e], the “kobs × 100” value came to 0.88 ± 0.05 h^-1. With `CCCCCCNC(=O)c1cc([N+](=O)[O-])cc([N+](=O)[O-])c1` [Compound 7b, N-hexyl-3.5-dinitrobenzamide] the figure was 0.84 ± 0.01 h^-1; with `CCCCCCNC(=O)c1ccc([N+](=O)[O-])cc1` [Compound 6b, N-hexyl-4-nitrobenzamide], 0.80 ± 0.05 h^-1.
